Measured values: PubChem BioAssay AID652104 (National Center for Advancing Translational Sciences (NCATS), 2013)
Out of some 410,000 compounds screened, about 7,200 (1.8%) were called active. The shares of active, inactive and inconclusive entries below differ from those in the screen. The call rests on the fitted dose curve; in most records, active means well fitted activation curve with a large enough effect; inconclusive means small, poorly fitted or top-dose-only effect, or another doubt; inactive means no such curve, though single readings can be large or run the other way. No potency is given beside an inconclusive call; the fits are too rough. The source holds several records for some structures; these can differ, active in one and inactive in another.

Assay: qHTS of TDP-43 Inhibitors; further: nearly all actives have a fitted effect of over 50% in size; on growth rescue (activation): % of control where 0% means no effect
Conditions: TDP-43 expressing yeast growth rescue, BacTiter-Glo, 24 h; growth rescue (activation): at 46.1 µM (top of the series) unless noted
In short: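 Galactose-induced TDP-43 yeast, OD600=0.02, compound pinned; 24 hr, 30 deg C; BacTiter-Glo luminescence for growth. Inhibitors of TDP-43 toxicity read as activators.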
Potency means the concentration at half of the fitted maximal effect; tags describe the fitted curve by direction and shape.

Question: With `Cc1ccc(N(CC(=O)N2CCN(c3ccc(F)cc3)CC2)S(=O)(=O)c2c(C)noc2C)cc1` as the compound, how does the Potency read?
Answer: active: 15.8 µM

Question: With `O=C(O)c1ccccc1SCc1csc(-c2ccccc2)n1` as the compound, how does the Potency read?
Answer: inconclusive [activator, single point]

Question: With `Cc1nc(SCC(=O)N(C)Cc2ccco2)c2c(C)c(C)sc2n1` as the compound, how does the Potency read?
Answer: active: 22.4 µM

Question: With `COc1ccc2c(c1)CC/C(=C\c1ccc(C)o1)C2=O` as the compound, how does the Potency read?
Answer: active: 17.8 µM

Question: For `Cc1ccc2c(=O)c(C(=O)c3cccc(Cl)c3)cn(CC(=O)NC3CCCCC3)c2n1`, which Potency is on record?
Answer: inactive

Question: For `O=C(c1cnc(Cl)c(Cl)c1)N1CCC(Cc2ccccc2)CC1`, which Potency is on record?
Answer: active: 12.6 µM

Question: For `Cn1ncc(SCc2ccccc2)c(Cl)c1=O`, which Potency is on record?
Answer: active: 20 µM

Question: Which Potency does the source give for `O=C(c1ccc(N2CCOCC2)cc1)N1CCCC(Nc2ccccc2)C1` (stereo unspecified) here?
Answer: inconclusive [activator, single point]

Question: Which Potency does the source give for `Cc1cc(C(=O)C(C)Cl)c(C)n1Cc1ccco1` (stereo unspecified) here?
Answer: inconclusive [activator, full curve, poor fit]

Question: Which Potency does the source give for `O=C(Nc1ccccc1)c1sc(Cl)nc1-c1ccccc1` here?
Answer: inactive

Question: Which Potency does the source give for `CCCCSc1nc2c([nH]1)c(=S)n(C)c(=O)n2C` here?
Answer: inconclusive [activator, single point]

Question: For `O=C(NCc1ccccc1)C1C(=O)Nc2ccccc2C(=O)N1C1CCCC1` (stereo unspecified), which Potency is on record?
Answer: inactive

Question: Which Potency does the source give for `Clc1cnc(N/N=C/c2cccs2)c(Cl)c1` here?
Answer: inconclusive [activator, single point]

Question: Which Potency does the source give for `O=C(/C=C\c1cn(-c2ccccc2)nc1-c1cccs1)N1CCOCC1` here?
Answer: inconclusive [activator, single point]

Question: For `CCOC(=O)c1cc2c(=O)n3ccccc3nc2n(C(C)C)c1=NC(=O)C(C)(C)Oc1ccc(Cl)cc1`, which Potency is on record?
Answer: inactive

Question: For `Cc1nc(-c2ccc(F)cc2)sc1CCNC(=O)Cc1ccc(F)cc1`, which Potency is on record?
Answer: inconclusive [activator, single point]

Question: With `CC1(C)C(=O)NCCN1C(=O)CC1C(=O)NCCN1Cc1cccc(C(F)(F)F)c1` (stereo unspecified) as the compound, how does the Potency read?
Answer: inactive

Question: Which Potency does the source give for `CC(C)C[C@H]1COCCS(=O)(=O)N1Cc1ccc(Cl)c(Cl)c1` here?
Answer: inconclusive [activator, single point]

Question: With `CCn1cc(/C=C(\NC(=O)c2cc(OC)c(OC)c(OC)c2)C(=O)NCCCn2ccnc2)c2ccccc21` as the compound, how does the Potency read?
Answer: inactive

Question: For `N#CC(C#N)=C1C(=O)N(CCN2CCCCC2)c2ccccc21`, which Potency is on record?
Answer: inactive

Question: For `Cc1c(NC(=O)c2cccs2)cccc1-c1nc2ccccc2s1`, which Potency is on record?
Answer: inconclusive [activator, single point]

Question: For `O=C(CSc1nnc(-c2ccccc2)c(-c2ccccc2)n1)N1CCOCC1`, which Potency is on record?
Answer: inactive

Question: Which Potency does the source give for `Cc1ccc(S(=O)(=O)C(CNS(=O)(=O)c2cc(F)ccc2F)c2cccs2)cc1` (stereo unspecified) here?
Answer: inconclusive [activator, full curve]

Question: With `COc1ccc(CCC(=O)NC2CC(=O)N(c3ccc(F)cc3)C2)cc1` (stereo unspecified) as the compound, how does the Potency read?
Answer: inactive

Question: Which Potency does the source give for `O=C(OCC(=O)C12CC3CC(CC(C3)C1)C2)c1ccc(O)cc1` here?
Answer: active: 11.2 µM

Question: With `CC(=O)NC(Cc1ccccc1)Cc1ccccc1` as the compound, how does the Potency read?
Answer: inactive

Question: With `CC1(C(=O)NS(=O)(=O)c2cccc(F)c2)CCN1C(=O)CC1CCCC1` (stereo unspecified) as the compound, how does the Potency read?
Answer: inconclusive [activator, full curve, poor fit]

Question: With `O=C(Nc1ccc(Cl)c(Cl)c1)Nc1nccs1` as the compound, how does the Potency read?
Answer: inconclusive [activator, full curve]

Question: With `CCCCCCCNc1cccc(C)c1` as the compound, how does the Potency read?
Answer: inactive

Question: For `COC(=O)c1ccccc1NS(=O)(=O)c1cc2c(cc1C)N(C)CCO2`, which Potency is on record?
Answer: inactive

Question: Which Potency does the source give for `CC1Cc2ccccc2N1C(=O)c1cnsn1` (stereo unspecified) here?
Answer: inconclusive [activator, partial curve]

Question: With `COc1ccc(NC(=O)C(=O)NCCc2csc3nc(-c4ccccc4F)nn23)cc1OC` as the compound, how does the Potency read?
Answer: inactive

Question: Which Potency does the source give for `O=C(Nc1cccc(-c2nc3cc(Cl)ccc3o2)c1)C1CCCO1` (stereo unspecified) here?
Answer: inconclusive [activator, single point]

Question: With `COc1cc2c(c(OC)c1)C(c1cccc(F)c1F)CC(=O)N2` (stereo unspecified) as the compound, how does the Potency read?
Answer: inactive

Question: With `CCC(=O)c1ccc(OCC(=O)N(Cc2nnc(-c3ccccc3Cl)o2)C2CC2)cc1` as the compound, how does the Potency read?
Answer: inactive

Question: With `Cc1cccc(N2CCN(C3=C(c4ccccc4)C(=O)c4ccccc43)CC2)c1C` as the compound, how does the Potency read?
Answer: inactive

Question: With `CCCN(CCC)CCCNC(=O)c1cc2c(=O)n(C)c3ccccc3c2s1` as the compound, how does the Potency read?
Answer: inactive

Question: With `CC(=O)Nc1ccccc1-c1nc2ccccc2n(C(C)C(=O)Nc2ccccc2C(F)(F)F)c1=O` (stereo unspecified) as the compound, how does the Potency read?
Answer: inactive

Question: For `Cc1cccc(C)c1NC(=O)C1c2ccccc2OCC(=O)N1CC(F)(F)F` (stereo unspecified), which Potency is on record?
Answer: inconclusive [activator, partial curve, poor fit]

Question: Which Potency does the source give for `COc1ccccc1CNS(=O)(=O)c1ccc(N2CCCC2)cc1Br` here?
Answer: inconclusive [activator, partial curve]

Question: With `COc1ccc(OCC(=O)NCCC2=CCCCC2)c([N+](=O)[O-])c1` as the compound, how does the Potency read?
Answer: inconclusive [activator, single point]

Question: Which Potency does the source give for `COc1cc2nc(SCc3ccc(C)cc3)n3nc(CCn4nc(C)cc4C)nc3c2cc1OC` here?
Answer: inactive

Question: For `CC(C)NC(=O)CN1CCN(C(c2cc3ccccc3o2)c2nnnn2C(C)(C)C)CC1` (stereo unspecified), which Potency is on record?
Answer: inconclusive [activator, partial curve, poor fit]

Question: With `CC(C)Cn1c(-c2cccc(Br)c2)nc2ccccc21` as the compound, how does the Potency read?
Answer: inconclusive [activator, partial curve]

Question: With `C/C(=N\NC(=S)Nc1ccccc1C)c1ccc(O)cc1` as the compound, how does the Potency read?
Answer: inconclusive [activator, partial curve]

Question: Which growth rescue (activation) does the source give for `O=C(Oc1c(-c2ccccc2)c(=O)n2c3c(cccc13)CC2)c1cccc([N+](=O)[O-])c1` here?
Answer: inactive: -29.2% [at 1.82 µM]

Question: Which Potency does the source give for `COc1cc(/C=C(/C(=O)c2cccs2)c2nc3ccccc3[nH]2)ccc1O` here?
Answer: inconclusive [activator, single point]

Question: With `CCSc1nc(-c2cccs2)nc2ccccc12` as the compound, how does the Potency read?
Answer: inconclusive [activator, partial curve, poor fit]

Question: With `Cc1ccc(CNC(=O)C(=O)NCC(c2ccc3c(c2)OCO3)N2CCOCC2)cc1` (stereo unspecified) as the compound, how does the Potency read?
Answer: inconclusive [activator, partial curve, poor fit]

Question: Which growth rescue (activation) does the source give for `COc1ccc(NC(=O)/C(Cl)=C(/Cl)S(=O)(=O)Cc2ccc(C)cc2)cn1` here?
Answer: inconclusive: -79.4% [activator]

Question: With `Cc1ccc2c(=O)cc(C(=O)Nc3c(C)n(C)n(-c4ccccc4)c3=O)oc2c1` as the compound, how does the Potency read?
Answer: inconclusive [activator, partial curve, poor fit]

Question: With `CCOC(=O)C1Nc2ccc(C(F)(F)F)cc2C2c3ccccc3CC12` (stereo unspecified) as the compound, how does the Potency read?
Answer: inconclusive [activator, single point]

Question: Which Potency does the source give for `N/C(=N\OC(=O)c1ccc(Br)o1)c1ccccn1` here?
Answer: active: 14.1 µM

Question: Which Potency does the source give for `COC(=O)c1ccc(OCCOc2ccccc2C)cc1` here?
Answer: inconclusive [activator, partial curve]

Question: With `O=C(c1ccccc1)N1c2nc(-c3ccco3)nn2C2(CCCCC2)[C@@H]2CCCC[C@@H]21` as the compound, how does the Potency read?
Answer: inactive

Question: With `Cc1ccc2[nH]c(CNC(=O)c3ccccc3F)cc2c1` as the compound, how does the Potency read?
Answer: inconclusive [activator, partial curve]

Question: With `CCN(CC)c1nc2cc(OC)ccc2cc1C#N` as the compound, how does the Potency read?
Answer: inactive

Question: With `O=[N+]([O-])c1ccc(/C=[N+](\[O-])CCO)o1` as the compound, how does the Potency read?
Answer: active: 11.2 µM

Question: For `CN1/C(=C\C(=O)c2cncc(Br)c2)C(C)(C)c2ccccc21`, which Potency is on record?
Answer: active: 12.6 µM

Question: With `O=C1CCCc2c1[nH]c1c(Br)cccc21` as the compound, how does the Potency read?
Answer: inconclusive [activator, single point]

Question: With `O=C1CSC(=NC2CCCCC2)N1` as the compound, how does the Potency read?
Answer: inconclusive [activator, partial curve]

Question: Which Potency does the source give for `COc1ccc(C(=O)N2CCN(c3ccc(NC(=O)Cc4ccccc4)cc3)CC2)cc1` here?
Answer: inconclusive [activator, single point]

Question: For `CCOC(=O)c1c[nH]c2c(C)cc(C)cc2c1=O`, which Potency is on record?
Answer: inconclusive [activator, single point]

Question: With `CN1C(=O)/C(=C/c2ccccc2Cl)Sc2ccc(C(=O)N3CCCC3)cc21` as the compound, how does the Potency read?
Answer: inconclusive [activator, single point]

Question: With `Cc1ccc(Nc2ccc(C(N)=O)cc2[N+](=O)[O-])cc1C` as the compound, how does the Potency read?
Answer: inactive

Question: For `Cc1ccc(-n2ncc(C(=O)NCc3ccco3)c2C2CCN(C(=O)OC(C)(C)C)CC2)cc1C`, which Potency is on record?
Answer: inactive

Question: For `CC(=O)OCP(C)(=O)COC(C)=O`, which Potency is on record?
Answer: inactive

Question: Which Potency does the source give for `O=C(CSc1nc2ccccc2nc1Cc1ccc(Cl)cc1)N1CCN(c2ccccc2)CC1` here?
Answer: inactive

Question: For `O=C(CSc1nc(-c2cccc(F)c2)[nH]c1-c1ccccc1)Nc1ccc2c(c1)OCO2`, which Potency is on record?
Answer: active: 20 µM

Question: For `O=C(CSc1ccc(-c2ccccn2)nn1)Nc1ccccc1`, which Potency is on record?
Answer: active: 28.2 µM

Question: For `Cc1ccc(-c2nc(C)c(CCNC(=O)c3ccccc3Br)s2)cc1`, which Potency is on record?
Answer: inconclusive [activator, full curve]

Question: Which Potency does the source give for `CCCCNc1ncnc2c1cnn2Cc1ccc(Cl)cc1` here?
Answer: inconclusive [activator, partial curve]

Question: With `COc1ccc(NC(=O)/C=C/c2ccc(F)cc2)cn1` as the compound, how does the Potency read?
Answer: inconclusive [activator, partial curve]

Question: With `CC(C)C(=O)NC(c1ccco1)c1c(O)ccc2ccccc12` (stereo unspecified) as the compound, how does the Potency read?
Answer: inactive

Question: With `O=S(=O)(c1ccc(NC(=S)N/N=C/c2c3ccccc3cc3ccccc23)cc1)N1CCOCC1` as the compound, how does the Potency read?
Answer: inconclusive [activator, full curve]

Question: For `CN(C)C(=O)c1ccc(NC(=O)c2ccc(-c3ccc(Cl)cc3)o2)cc1`, which Potency is on record?
Answer: inconclusive [activator, single point]
